# Test results from PubChem BioAssay (NCI).
# Where “and” joins values, the source holds several entries; their conditions need not be identical. Identical values can stand only once.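 Interpolation was linear, between the two tested concentrations surrounding the appropriate level; five concentrations were tested over 48 hours in 96-well plates. Abbreviation: GI50, concentration required for 50% inhibition of growth. The concentration for full growth arrest is given as TGI.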
# Test system: NCI-H322M lung
# Assay: NCI tumour cell line growth inhibition, 48 h
structure (smiles),measurement,value
N#CCCN(CCN(CCC#N)C(=O)Nc1ccccc1)C(=O)Nc1ccccc1,TGI,> 100 µM
[Cl][Cd][Cl],GI50,> 71.5 µM and 49.3 µM
same,TGI,115 µM
O=C(O)/C=C/C(=O)N1C/C(=C\c2ccccc2)C(=O)/C(=C/c2ccccc2)C1,TGI,27.8 µM
Cc1ccc2c(=O)cc(-c3sc4ccccc4c3C)[nH]c2n1,TGI,> 100 µM
COc1cc2c3c(n(CCCN=[N+]=[N-])c(=O)c2cc1OC)-c1ccc(N(C)C)cc1C3=O,GI50,> 100 µM
same,TGI,> 100 µM
COc1cc2c(cc1OC)C(=O)N(NC1=NCCN1)C2=O,TGI,> 100 µM
O=c1[nH]c2c(c(=O)[nH]1)SSC2,TGI,33.5 µM
O=C(O)CCSC(=O)Nc1ccc(N=Nc2ccccc2)cc1,TGI,> 100 µM
C/C=C(\C)C(=O)N[C@H]1C(O)C[C@]2(C)C3CC[C@@]4(C)C(CC[C@@H]4C(C)N(C)C)C3CCC2C1O (some centres not stated),GI50,4.19 µM
same,TGI,18 µM
COc1cccc(-c2nc(-c3cnccn3)n(COCCO)n2)c1,TGI,> 100 µM
c1ccc2c(c1)C1=NCCN1c1ccccc1-2,TGI,13.4 µM
N#Cc1nc(COCCOCc2ccc(F)cc2)oc1N,TGI,> 100 µM
Cc1ccccc1-n1c(C)nc(-c2ccccc2)cc1=O,TGI,> 100 µM
c1ccc2cc3c(cc2c1)nc1ccccn13,TGI,> 100 µM
CCOC(=O)/C(C#N)=C/c1ccc2c(c1)CC1(C2)Cc2cc(CC)c(C(C)O)cc2C1 (configuration not stated),TGI,> 81.7 µM
Cc1cccc2c(N)c3ccccc3nc12,GI50,1.53 µM
same,TGI,6.86 µM
Cc1cc2c(C)n(Cc3ccc(Cl)cc3Cl)nc2c(C(=O)O)c1C,TGI,> 100 µM
c1ccc(CNc2nc(Nc3ccccc3)nc3ccccc23)cc1,GI50,3.32 µM
same,TGI,12 µM
Cc1cccc2nc3cccc(C(=O)NCCN(C)C)c3nc12,TGI,4.8 µM
CN1C(Cl)=NS(=O)(=O)c2ccccc21,TGI,> 100 µM
CNC(=O)OCC1C2=C(C(=O)C(C)=C(N)C2=O)N2CC3C(N3C)C12OC (configuration not stated),TGI,53.7 µM
COc1ccc(-c2nn(-c3cccc(NC(=O)c4ccc(N5CCOCC5)c(C(F)(F)F)c4)c3)cc2-c2ccncc2)cc1Cl,GI50,> 50 µM
same,TGI,> 50 µM
Cn1c(=O)c(Oc2ccc(F)cc2F)cc2cnc(NCCS(C)(=O)=O)nc21,GI50,> 25 µM
same,TGI,> 25 µM
COc1cc(/C=C/C(=O)c2cccnc2Nc2ccc(F)cc2)cc(OC)c1OC,GI50,4.83 µM
same,TGI,> 100 µM
N#Cc1c(N2CCOCC2)[nH]c(=O)c(C(c2c(Cl)cccc2Cl)c2c(O)c(C#N)c(N3CCOCC3)[nH]c2=O)c1O,TGI,> 100 µM
COc1ccc(CCNCCCC2c3ccccc3-c3ccccc32)cc1OC,TGI,25.6 µM
O=C(CC1C(=O)c2ccccc2C1=C1C(=O)c2ccccc2C1=O)c1ccccc1 (configuration not stated),TGI,> 100 µM
Cc1cc(-c2nc3cccc(F)c3s2)ccc1N,TGI,> 100 µM
Cc1cccc(C(C)(C)C)c1NC(=O)CC1Sc2ccccc2NC1=O (configuration not stated),TGI,> 100 µM
C[N+](C)=c1nc(N2CCc3ccccc3C2)ss1,TGI,> 100 µM
Nc1nc(N)c2nc(CNc3ccc(C(=O)NC(CCCCNC(=O)c4ccccc4C(=O)O)C(=O)O)cc3)cnc2n1 (configuration not stated),TGI,> 100 µM
CC1=C(C(=O)Nc2ccc([N+](=O)[O-])cc2)C(c2ccccc2F)C(C(=O)Nc2ccc([N+](=O)[O-])cc2)=C(C)N1,TGI,90.9 µM
O=[N+]([O-])c1cccc(C2=NOC3C4CCC(C4)C23)c1 (configuration not stated),TGI,> 100 µM
Cc1ccc(-c2nc(N3CCCNCC3)c3oc(-c4ccc(C)cc4)nc3n2)cc1,GI50,1.69 µM
same,TGI,3.06 µM
CCN(CC)CCO/N=C1/C=C2CCC3C(CC[C@@]4(C)C3CC[C@]4(C)O)[C@@]2(C)CC1 (some centres not stated),TGI,36.8 µM
COC1=C2CC(C)CC(OC)C(O)C(C)/C=C(\C)C(OC(N)=O)C(OC)/C=C\C=C(/C)C(=O)NC(=C(/C=N/N3CCCCC3)C1=O)C2=O (configuration not stated),TGI,89.6 µM
COc1ccc2nc(NC(=O)c3cccnc3Nc3cc(OC)c(OC)c(OC)c3)sc2c1,GI50,17.3 µM
same,TGI,39.7 µM
COC(=O)CCC(=O)NC1C2CC3CC(C2)CC1C3 (configuration not stated),TGI,> 100 µM
Cc1cc2c(cc1Cl)SC(NNc1ccc([N+](=O)[O-])cc1)=NS2(=O)=O,TGI,> 10 µM
O=C1C=CC(CC(=O)c2ccc3ccccc3c2)O1 (configuration not stated),TGI,32.7 µM
O=S(=O)(NCCNc1nccc(-c2c(-c3ccc(F)cc3)nc3sccn23)n1)c1ccccc1,GI50,14.3 µM
same,TGI,> 100 µM
CN1CC(=O)N(C)c2nc[nH]c2C1=O,TGI,> 100 µM
O=C1C2Nc3ccccc3SC2C(=O)N1c1ccccc1C(F)(F)F (configuration not stated),TGI,> 100 µM
C=C(C)C12CC3CC/C(=N/O)C(C1)C3(N1CCOCC1)C/C2=N/O (configuration not stated),TGI,> 100 µM
Cc1ccc(S(=O)(=O)NNC2Oc3cc4c(cc3C(c3ccccc3O)C2C)OCO4)cc1 (configuration not stated),TGI,30 µM
O=C1OC(CN2CCOCC2)CN1/N=C/c1ccc([N+](=O)[O-])o1 (configuration not stated),TGI,98.4 µM
C/C(=N\Nc1nc2ccccc2s1)c1cc(C)ncn1,TGI,> 66 µM
CC1(C)O[C@@H](CBr)C[C@H](C[C@H]2C[C@@H](O)C[C@@H](CCOCc3ccccc3)O2)O1,TGI,34.4 µM
Nc1ccc([C@H]2C(=O)N[C@H]3CCC[C@H]32)cc1,TGI,> 100 µM
CCc1cc2c(oc3cc(C)ccc32)c(=O)n1C,TGI,> 10 µM
COc1ccc(Nc2cc(C)nc(N3CCN(c4ccnc5cc(Cl)ccc45)CC3)n2)cc1,GI50,6.35 µM
same,TGI,> 100 µM
CSc1cccc(NC(=O)OC2CCCCCCCCCCC2)c1,TGI,77.2 µM
O=C1CC(c2ccc(Cl)cc2)Oc2ccccc21 (configuration not stated),TGI,> 100 µM
COc1ccc(CCNC(=O)[C@H]2CCCC[C@@H]2CCO)cc1OC,TGI,> 100 µM
CCC(=O)N/N=C(\C=C\c1cccc(O)c1)c1sc(Nc2ccc(C)cc2[N+](=O)[O-])nc1C,TGI,> 100 µM
COc1cc(C(=O)Nc2cc(C(N)=O)cc(OC)c2OC)cc(NC(=O)/C=C/c2ccccc2)c1OC,TGI,> 100 µM
OCCN1CCN(CC/C=C2\c3ccccc3Sc3ccc(Cl)cc32)CC1,GI50,10.3 µM and 6.46 µM
same,TGI,25.8 µM and 19.2 µM
Cc1cc(N(CCC#N)CCC#N)ccc1C=Nc1ccc(C(=O)NN2C(=O)/C(=C/c3ccc(N(CCC#N)CCC#N)cc3)N=C2c2cc([N+](=O)[O-])ccc2Cl)cc1,TGI,> 100 µM
Cc1c(Sc2ccccc2)[n+](=O)c2cc(Cl)c(Cl)cc2n1[O-],GI50,> 100 µM
same,TGI,> 100 µM
CC(=O)NNc1nc(C)c(C(=O)NNC(=O)C(=O)Nc2c(C)cccc2C(C)(C)C)s1,TGI,> 100 µM
O=c1ccn(C2OC(CN(O)CCC3C(CO)OC(n4ccc(=O)[nH]c4=O)C3O)C(O)C2O)c(=O)[nH]1 (configuration not stated),TGI,> 100 µM
c1ccc(CC2(c3cc4ccccc4[nH]3)OCCO2)nc1,TGI,> 100 µM
O=C(NNC(=O)c1ccccc1O)c1ccc(O)cc1,TGI,> 100 µM
CCn1c2ccccc2c2cc(C(O)c3cccc4ncccc34)ccc21 (configuration not stated),GI50,0.133 µM
same,TGI,> 100 µM
CC(=O)c1sc(=N)n(-c2c(C)cccc2C)c1C,TGI,> 100 µM
CCc1nc(N)nc(N)c1-c1ccc(Cl)c(N=CN(C)C)c1,TGI,> 100 µM
CC(=O)Oc1ccc(C(c2ccc(OC(C)=O)cc2)c2ccccn2)cc1,GI50,0.381 µM
same,TGI,> 71.7 µM
CCOC(=O)c1c(C)c(C)n2c1NC(=O)C2,TGI,> 100 µM
Cc1ccc(S(=O)(=O)NCCCSCCSCCCN)cc1,TGI,> 100 µM
O=C(CCN1CCOCC1)C(=Cc1ccccc1)C(=O)CCN1CCOCC1,TGI,38.4 µM
CC(C)c1cc(OCC(O)CO)cc(C(C)C)c1 (configuration not stated),TGI,> 100 µM
O=C(N/N=C\C(F)(F)F)c1ccncc1,TGI,> 100 µM
Cc1cccc2c(=O)c3cccc([C@@H](C)C(=O)O)c3oc12,TGI,> 100 µM
COc1ccc2c(c1OC)C(=O)c1cnccc1C2=O,TGI,> 100 µM
COc1ccc(N2C(=O)CC(c3c[nH]c4ncccc34)C2=O)cc1 (configuration not stated),TGI,> 100 µM
O=S(=O)(C/C(=N\O)c1ccccc1)c1ccccc1,TGI,> 100 µM
